In all, about 110,000 compounds were measured (“z-score”: median about -0.1, highest 2% from about 2 on). Some of the results follow.

In this test the target is Metabotropic glutamate receptor 8 (Rattus norvegicus) (UniProt P70579). Nature of the test: rat mGluR8 modulators via GIRK flux, primary screen, cell-based, thallium flux, HTS (AID 488969). The note with it: HEK293 rat mGluR8, GIRK (G protein-gated inwardly rectifying potassium channel) thallium flux, FluoZin2; at 10 µM; stronger effect = higher value; submaximal glutamate (EC20) added with thallium.
UniProt P70579, sequence (P70579 whole entry, looked up): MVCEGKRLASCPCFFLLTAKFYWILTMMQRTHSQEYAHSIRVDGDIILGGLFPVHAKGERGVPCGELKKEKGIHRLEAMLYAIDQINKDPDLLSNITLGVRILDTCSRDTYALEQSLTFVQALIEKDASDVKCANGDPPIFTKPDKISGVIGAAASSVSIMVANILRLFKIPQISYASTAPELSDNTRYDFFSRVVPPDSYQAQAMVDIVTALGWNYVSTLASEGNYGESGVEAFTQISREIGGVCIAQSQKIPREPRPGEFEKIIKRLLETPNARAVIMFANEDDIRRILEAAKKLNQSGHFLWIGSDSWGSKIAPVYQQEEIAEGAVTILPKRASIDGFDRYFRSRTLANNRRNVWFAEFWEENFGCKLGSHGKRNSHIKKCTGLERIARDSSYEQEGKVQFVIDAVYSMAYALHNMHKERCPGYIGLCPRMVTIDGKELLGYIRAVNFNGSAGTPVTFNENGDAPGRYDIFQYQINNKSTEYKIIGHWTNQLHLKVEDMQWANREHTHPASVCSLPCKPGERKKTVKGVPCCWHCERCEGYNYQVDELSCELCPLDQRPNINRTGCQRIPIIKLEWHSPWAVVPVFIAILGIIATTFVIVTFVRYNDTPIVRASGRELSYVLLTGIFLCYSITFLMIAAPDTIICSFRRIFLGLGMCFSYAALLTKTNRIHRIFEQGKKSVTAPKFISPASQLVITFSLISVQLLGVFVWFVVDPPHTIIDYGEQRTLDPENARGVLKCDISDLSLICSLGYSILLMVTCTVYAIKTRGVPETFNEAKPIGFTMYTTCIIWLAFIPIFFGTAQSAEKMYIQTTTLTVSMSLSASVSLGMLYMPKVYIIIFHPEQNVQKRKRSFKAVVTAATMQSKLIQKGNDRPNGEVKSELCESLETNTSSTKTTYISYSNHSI
In turn, `OCCCc1nc2n(n1)C(c1cccs1)C=C(c1ccccc1)N2` (configuration not stated) displayed a z-score of 2.68.

Take `CC(=O)c1c(C)[nH]c(C(=O)OCC(=O)Nc2cccc(S(=O)(=O)N3CCCC3)c2)c1C`: the z-score amounted to 0.16.

With `Cc1cc(C)c([N+](=O)[O-])cc1-c1ccc(/C=N/NC(=O)c2nonc2N)o1`, the z-score is -0.911.

As to `O=S(=O)(c1ccc(Cl)cc1)N1CCn2c1nc1ccccc12`, the z-score stood at 0.858.

`CCOc1ccc(OCc2ccc(C(=O)Nc3cccnc3)o2)cc1`: the z-score was -0.0433.

Turning to `O=C(O)C1(c2cccc(Cl)c2)CCC1`, the z-score was -0.0757.

As for `Cc1cccc(-c2cc(C(=O)NCCCn3ccnc3)c3ccccc3n2)c1`, the z-score is -0.224.

For the compound `O=C(Nc1cccs1)Nc1ccc(Br)cc1F`, the z-score worked out at 0.678.

Take `Cc1ccccc1NC(=O)c1ccc(COc2ccc3c(C)cc(=O)oc3c2)cc1`: the z-score is -0.115.

For the compound `Clc1ccccc1CSc1nc2ccncc2[nH]1`, the z-score was 0.533.

Take `O=C(NC1CC1)c1ccc(S(=O)(=O)NCC2CCCCC2)cc1`: the z-score is 0.116.

Consider `COC(=O)C(CC(C)C)NC(=O)CSc1nc(-c2ccccc2)c(C#N)c(=O)[nH]1` (configuration not stated), for which the z-score is -0.417.

As for `COc1cccc(OC)c1C(=O)NN1CCCCC1`, the z-score was -0.254.

The compound `Cc1ccc(C(=O)NCCCn2ccnc2)cc1[N+](=O)[O-]` returned a z-score of 0.161.

With `O=C(Nc1ccc(N2CCOCC2)cc1)c1cccnc1`, the z-score is -0.32.

Compound `CC(C)(C)CC(=O)O/N=C(\N)c1ccccn1` showed a z-score of -0.0383.

`Cc1ccc(C2=NN(S(C)(=O)=O)C(c3ccc4c(c3)OCO4)C2)cc1` (configuration not stated): the z-score is 0.202.

`COc1cc(OC)nc(NC(=O)NS(=O)(=O)c2ccc(OC(F)(F)F)cc2)n1` returned a z-score of -0.799.

As for `CCCc1nc(N2CCOCC2)c(C#N)c2c1CCCC2`, the z-score stood at 1.21.

In turn, `Cn1c(SCc2nc(-c3cccs3)no2)nnc1C1CCCCC1` registered a z-score of -0.304.

In turn, `COc1cc2c(cc1OC)-c1cc(NC3CCCCC3)nc(=O)n1CC2` displayed a z-score of -2.16.

For the compound `CC(C)CC(c1nnnn1Cc1ccccc1)N1CCN(C(=O)c2ccco2)CC1` (configuration not stated), the z-score was found to be 0.752.

`CCOCCOCCC(C(=O)OCC)P(=O)(c1ccccc1)c1ccccc1` (configuration not stated) returned a z-score of 0.0813.

The compound `COc1cc(NC(=O)CSc2ncccc2C(=O)OC(C)C)cc(OC)c1` came in with a z-score of 0.436.

Take `O=C(c1ccc(S(=O)(=O)N2CCCCCC2)cc1)N1CCN(c2ccccn2)CC1`: the z-score is -0.97.

`CCOC(=O)Nc1nnc(/C=C/c2ccc(OC)cc2)s1` registered a z-score of -0.0465.

For `Fc1cccc(CSc2ncnc3c2oc2ccccc23)c1`, the z-score is -0.0132.

The compound `O=C(/C=C/c1ccccc1)N1CCN(C(=O)c2ccco2)CC1` showed a z-score of -0.277.

`Cc1cc(NC(=O)c2cc(-c3cccs3)on2)nn1Cc1ccc(Cl)cc1` returned a z-score of -0.986.

In the case of `CCOC(=O)c1sc2ncnc(OC)c2c1C`, the z-score is -1.01.

With `N=c1ncn(CC(O)CO)c2nc(N3CCOCC3)[nH]c12` (configuration not stated), the z-score was -0.0516.

`CCn1c(SCC(=O)Nc2cccc(NC(=O)c3ccco3)c2)nnc1-c1cccs1` yielded a z-score of -0.238.

Take `Cc1cc(C)c(C#N)c(SCC(=O)c2cc(C)n(CCc3ccccc3)c2C)n1`: the z-score is -0.392.

As to `COc1cccc(C(=O)Nc2cccc(C(=O)NCC(C)C)c2)c1`, the z-score was -0.271.

In turn, `Cc1cc(C)c2c(=O)cc(C(F)F)oc2c1` came in with a z-score of -0.047.

Compound `CCOc1ccc(CCNC(=O)c2ccc(N3CCCC3=O)cc2)cc1OCC` gave a z-score of 0.407.

In the case of `CN(C)C(=S)Nc1ccc2ccccc2c1`, the z-score was determined as 0.277.

Take `CCOC(=O)C1=C(C)NC(=O)NC1c1cccc(OC)c1OCc1ccccc1Cl` (configuration not stated): the z-score was determined as 0.00808.

On to `CCn1c(COc2ccc(OC)cc2)nc2ccccc21`, for which the z-score is -0.207.

`COc1ccc(-c2nc(CS(=O)CC(=O)N3CCc4ccccc4C3)c(C)o2)cc1` (configuration not stated) registered a z-score of -0.0904.

In turn, `O=C1C(=O)N(c2ccccc2)c2ccccc21` registered a z-score of -0.226.

The compound `CCCS(=O)(=O)c1c(S(=O)(=O)CCC)c2cnccn2c1C(=O)c1ccc(Cl)cc1` yielded a z-score of -0.151.

The compound `CCn1c(NCc2cccc(OC)c2OC)nc2ccccc21` yielded a z-score of -0.218.

As to `COC(=O)CSc1nnc(CNC(=O)c2ccccc2OC)n1C`, the z-score is -0.323.

For `Cc1cc2cc(CN(CCN3CCOCC3)C(=O)Nc3ccccc3F)c(=O)[nH]c2cc1C`, the z-score is -0.536.

With `CCNC(=O)c1sc(=S)n(-c2ccc(C)cc2)c1N`, the z-score was -0.262.

Take `CCC(C)(C(=O)NC1CCCCC1)N(CC1CCCO1)C(=O)CNC(=O)c1ccccc1` (configuration not stated): the z-score came to 0.914.

For the compound `CN1CCc2c(sc3c2C(=O)NC(c2cn(Cc4ccccc4)c4ccccc24)N3)C1` (configuration not stated), the z-score came out at 0.56.

`CCC1Oc2ccccc2N(CC(=O)NCCC2=CCCCC2)C1=O` (configuration not stated) returned a z-score of -0.455.

`CCOC(=O)c1nnn(-c2nonc2N)c1CSc1ccccc1` displayed a z-score of -1.55.

The compound `CC(C)(C)C1=CC(=O)C(N2CCOCC2)=CC1=O` showed a z-score of -0.761.

The compound `CC1(C)CC(=O)CC(C)(C)N1OC(=O)c1ccccn1` came in with a z-score of 0.04.

As to `Cc1ncc([N+](=O)[O-])n1CCOC(=O)Nc1ccc(Cl)c(Cl)c1`, the z-score is -0.149.

In turn, `Cc1ccc(-c2nnc(SCC(=O)N/N=C/c3cccs3)n2-c2ccc(C)cc2)cc1` showed a z-score of -0.202.

For `COc1ccc(S(=O)(=O)N2CCC(C(=O)NCc3ccccn3)CC2)cc1C`, the z-score is -0.121.

Regarding `COc1cccc(-c2cc(C(F)(F)F)nc(N3CCCCC3)n2)c1`, the z-score is -0.292.

In turn, `CCOc1ccc2cc(/C=C/C(=O)c3ccco3)c(Cl)nc2c1` registered a z-score of -0.0324.

Regarding `FC(F)(F)c1cccc(Cn2nnnc2-c2ccc(Cl)cc2)c1`, the z-score is -0.11.

Compound `CNC(=S)NN(C)c1nc(C)cc(C)n1` showed a z-score of -0.186.

As to `CCCC(=O)Nc1sc(C)c(C)c1C(=O)Nc1cccc(C)c1`, the z-score is -0.261.

`CCCC(=O)Nc1cc(C)c(NC(=O)C23CC4CC(CC(C4)C2)C3)cn1` gave a z-score of 0.0448.

Regarding `O=[N+]([O-])c1cccc(-c2nc(-c3ccncc3)no2)c1`, the z-score is 0.438.

Consider `COC(=O)CCC(=O)Nc1cccc2c(NC(=O)CCC(=O)OC)cccc12`, for which the z-score worked out at 0.169.

Take `COc1ccc(CN2CCN(C(=O)C3CC(=O)N(C4CCCCCC4)C3)CC2)c(OC)c1OC` (configuration not stated): the z-score came to 0.142.

In turn, `O=C(COc1ccccc1)Nc1nnc(-c2ccccc2)o1` came in with a z-score of -0.421.

For the compound `Cc1c(NC(=O)CC(=O)Nc2c(C)n(C)n(-c3ccccc3)c2=O)c(=O)n(-c2ccccc2)n1C`, the z-score was -0.0936.

In turn, `CCOC(=O)Cn1c(C)nc2c(C(=O)OCC)sc(C)c2c1=O` yielded a z-score of -0.121.

In the case of `CC(C)COc1ccccc1C(=O)NC(CO)C(=O)O` (configuration not stated), the z-score turned out to be 0.167.

`COc1ccccc1OCCc1nnc(N)s1`: the z-score was -0.111.

The compound `O=[N+]([O-])c1cccc(/C=N/Nc2nc(C(Cl)(Cl)Cl)nc3ccccc23)c1` gave a z-score of -0.0926.

For `CCOC(=O)c1c(NC(=O)CSc2nnc(C)s2)sc2c1CCC(CC)C2` (configuration not stated), the z-score is -0.265.

As for `Cc1cccc(Oc2coc3cc(OC(=O)c4cncc(Br)c4)ccc3c2=O)c1`, the z-score came to 0.545.

These data come from PubChem BioAssay AID488969 (Vanderbilt High Throughput Screening Facility, 2010).
